According to PubChem BioAssay (NCATS):
The inconclusive results got no clear call from the source; some entries with a clear call stand among them for comparison. For part of these data: Where the call is inconclusive, the potency comes from a doubtful curve fit. The source made the active and inactive calls. The call rests on the fitted dose curve; in most records, active means well fitted curve in the direction sought with a large enough effect; inconclusive means small, poorly fitted or top-dose-only effect, or another doubt; inactive means no such curve, though single readings can be large; an effect the other way counts as inactive or inconclusive. Positions of bridges follow the written chain, without caps; N, C: chain ends. Non-standard residues stand in square brackets, D forms with d. Residues, ends and D or L forms follow the SMILES beside them. Groups on a side chain read outwards from the residue. *: point of attachment. Phg(4-OMe) = COc1ccc([C@H](N)C(=O)O)cc1; d(aIle) = CC[C@H](C)[C@@H](N)C(=O)O; d(aThr) = C[C@@H](O)[C@@H](N)C(=O)O; NMeF = CN[C@@H](Cc1ccccc1)C(=O)O; Isobutyryl = CC(C)C(=O)*

How the values were obtained:
[1] = HPAF-II Cancer Cell Toxicity qHTS against the NCATS CANVASS Library (AID 1347346); further: nearly all actives have a fitted effect of over 55% in size; further: potency means the concentration at half of the fitted maximal effect
Summary of the method: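 Luminescence from CellTiter-Glo, added after 72 h compound exposure and a 15 min room-temperature incubation, served as the viability readout. HPAF-II cells (1000/well) received an 11-point concentration series.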

[2] = UWB1.289 Cancer Cell Toxicity qHTS against the NCATS CANVASS Library (AID 1347347); further: nearly all actives have a fitted effect of over 60% in size; further: potency means the concentration at half of the fitted maximal effect
Summary of the method: (§1)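 In this cytotoxicity screen, 1000 cells per well rested 4 hours, then received compound (11 concentrations) for a 72-hour incubation; an ATP-dependent luminescent signal (CellTiter-Glo) was the endpoint.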

[3] = U-118MG Cancer Cell Toxicity qHTS against the NCATS CANVASS Library (AID 1347351); further: potency means the concentration at half of the fitted maximal effect
Summary of the method: as §1

[4] = COV-362 Cancer Cell Toxicity qHTS against the NCATS CANVASS Library (AID 1347352); further: potency means the concentration at half of the fitted maximal effect
Summary of the method: (§2)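 Luminescent ATP read-out (CellTiter-Glo, 15min at room temperature) measures survival after cells face an 11-point compound series for 72 hours at 37 degrees C/5% CO2.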

[5] = HEK-293 Cancer Cell Toxicity qHTS against the NCATS CANVASS Library (AID 1347355); further: nearly all actives have a fitted effect of over 65% in size; further: potency means the concentration at half of the fitted maximal effect
Summary of the method: as §2

[6] = qHTS assay for small molecule disruptors of mitochondrial membrane potential screened against the NCATS CANVASS Library (AID 1347389); further: nearly all actives have a fitted effect of over 60% in size
Summary of the method: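 HepG2, 2,000 cells/well, attached overnight; compound 1 hr, 37C, 5% CO2; Mito-MPS dye 30 min, 37C; fluorescence 535 nm (monomer) and 590 nm (aggregate); decreased 590/535 ratio = depolarization.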

[7] = Secretion counterscreen for inhibitors of the SERCaMP assay screened against the NCATS CANVASS Library (AID 1347390); settings: SH-SY5Y constitutive GLuc secretion, luminescence, 20 h; activity change, negative = inhibition: at 76.6 µM (top of the series);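 further: light from luciferase secreted into medium read as a measure of general secretion; potency means the concentration at half of the fitted maximal effect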
Summary of the method: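 SH-SY5Y cells with constitutively secreted GLuc reporter, 1000 cells/well, treated 20 h at 37C with compounds at 0.001 - 77 uM final; secreted luciferase read as luminescence after coelenterazine; Brefeldin A as positive control.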

[8] = qHTS for activators of Nrf2/ARE signaling pathway screened against the NCATS CANVASS Library (AID 1347391); further: nearly all actives have a fitted effect of over 60% in size; further: potency means the concentration at half of the fitted maximal effect
Summary of the method: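 Plate ARE-bla HepG2 cells at 2000/well and let them settle 5 h. Pin-transfer compounds in DMSO, incubate 16 h at 37C. Load CCF4 for 2 h at room temperature and read blue/green fluorescence.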

[9] = Vero-766 cells viability qHTS against the NCATS CANVASS Library: Counterscreen for Zika virus inhibition assay (AID 1347394); settings: Vero 766 viability, CellTiter-Glo luminescence, 72 h; activity change, negative = cytotoxic: at 46.1 µM (top of the series); further: nearly all actives have a fitted effect of over 60% in size; further: potency means the concentration at half of the fitted maximal effect
Summary of the method: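 Vero 766 cells (1000/well), without Zika virus, were exposed to compounds for 72 h at 37C. Viability was measured by CellTiter Glo luminescence. Media-only wells served as 100% inhibition.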

[10] = OV-SAHO Cancer Cell Toxicity qHTS against the NCATS CANVASS Library (AID 1347348); settings: OV-SAHO viability, CellTiter-Glo luminescence, 72 h; activity change, negative = cytotoxicity: at 38.3 µM (top of the series); further: potency means the concentration at half of the fitted maximal effect; nearly all actives have a fitted effect of over 55% in size
Summary of the method: as §1

[11] = A2780 Cisplatin Sensitive Ovarian Cancer Cell Toxicity qHTS against the NCATS CANVASS Library (AID 1347353); further: nearly all actives have a fitted effect of over 60% in size; further: potency means the concentration at half of the fitted maximal effect
Summary of the method: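 Luminescent ATP content (ATPLite, 10 min at room temperature) served as the read-out after cells had been exposed to compounds for 72 hours at 37 °C. Dosing followed an 11-point concentration series.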

[12] = UWB1.289-WTBRCA1 Cancer Cell Toxicity qHTS against the NCATS CANVASS Library (AID 1347354)
Summary of the method: as §2

[13] = G06 Cancer Cell Toxicity qHTS against the NCATS CANVASS Library (AID 1347368)
Summary of the method: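 Dog G06 glioma line, 500 cells/well; cpds pin-transferred, 11-pt; 72 hr, 37C/5% CO2; CellTiterGlo luminescence (ATP) endpoint.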

[14] = qHTS for Hypoxia signaling pathway (HIF-1) antagonists against the NCATS CANVASS Library (AID 1347374); further: nearly all actives have a fitted effect of over 60% in size; further: potency means the concentration at half of the fitted maximal effect;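 on activity change, negative = inhibition: HRE-bla ME-180 cells stimulated with cobalt chloride to stabilize HIF-1alpha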
Summary of the method: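 HRE-bla ME-180 cells in medium with 0.5% dialyzed FBS received compounds (11-point series) plus CoCl2 (60 uM addition stock) for 17 hrs at 37C. Beta-lactamase activity read with CCF4 (405 nm ex, 460/530 nm em); CellTiter-Glo viability measured in same wells.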

[15] = qHTS for H2AX Agonists against the NCATS CANVASS Library (AID 1347378)
Summary of the method: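 CHO-K1 cells (1000/well, overnight at 37C) exposed to compounds at several concentrations for 3 hr at 37C, 0.76% DMSO final. Lysates read by TR-FRET (phospho-H2AX S139 Eu-cryptate antibody / H2AX-d2 antibody) after 24 hr at room temperature; 665/615 nm ratio.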

[16] = qHTS for Antimalaria activity screened against the NCATS CANVASS Library (AID 1347380); further: nearly all actives have a fitted effect of over 40% in size; further: potency means the concentration at half of the fitted maximal effect;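 on activity change, negative = inhibition: Plasmodium falciparum strain Dd2 asexual parasites grown in red blood cells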
Summary of the method: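 Dd2 strain, infected erythrocytes 2.5% Hct final / 0.3% parasitemia. 11-pt qHTS titration, 72 h, 37C, 5% O2, 5% CO2. Lysis buffer + SYBR Green, 18 h, fluorescence 485/535 nm.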

[17] = qHTS for inhibitors of ER calcium dysfunction: SERCaMP assay screened against the NCATS CANVASS Library (AID 1347393); settings: SH-SY5Y GLuc-SERCaMP (Gaussia luciferase released on ER calcium loss) secretion, thapsigargin, luminescence; activity change, negative = inhibition: at 76.6 µM (top of the series) unless noted; further: potency means the concentration at half of the fitted maximal effect; nearly all actives have a fitted effect of over 40% in size
Summary of the method: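 Thapsigargin-induced ER calcium depletion drives GLuc-SERCaMP secretion from SH-SY5Y cells; compounds given 16 h beforehand were scored by lowered coelenterazine luminescence after 4 h challenge.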

[18] = Viability qHTS for inhibitors of the SERCaMP assay screened against the NCATS CANVASS Library (AID 1347400); further: nearly all actives have a fitted effect of over 70% in size; further: potency means the concentration at half of the fitted maximal effect
Summary of the method: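 SH-SY5Y SERCaMP MJH297 cells, 1000/well; 4 h settle, 37C/5% CO2; pin-transferred cpds; 48 h; CellTiter-Glo lum. Pos ctrl bortezomib 0.0001 - 4.6 uM.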

[19] = qHTS for Activators of p53 Stress Response Pathway screened against the NCATS CANVASS Library (AID 1347388); further: potency means the concentration at half of the fitted maximal effect
Summary of the method: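 Beta-lactamase reporter driven by p53 response elements in HCT-116 cells, read as the 460 nm/530 nm emission ratio after CCF4 loading, following 16 h of exposure to an 11-point series. Cell viability was measured in the same wells by CellTiter-Glo luminescence.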

[20] = Panc-1005 Cancer Cell Toxicity qHTS against the NCATS CANVASS Library (AID 1347349)
Summary of the method: as §1

[21] = SW1088 Cancer Cell Toxicity qHTS against the NCATS CANVASS Library (AID 1347350); further: potency means the concentration at half of the fitted maximal effect; nearly all actives have a fitted effect of over 75% in size
Summary of the method: as §1

[22] = HEK293 24hr Apoptosis Induction qHTS against the NCATS CANVASS Library (AID 1347359)
Summary of the method: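 Caspase-3/7 activation measured as luminescence from the DEVD-based Caspase-Glo reagent, 15 min at room temperature, following 24-hour compound treatment of HEK293 cells.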

[23] = test system: NAD(P)H diaphorase (Clostridium kluyveri); assay: Diaphorse counterscreen qHTS: Assay Interference Panel against the NCATS CANVASS Library (AID 1347362); further: potency means the concentration at half of the fitted maximal effect
Summary of the method: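 Counterscreen for coupling-enzyme interference: resorufin fluorescence from resazurin/NADH turnover, read after 5 min at room temperature. Compounds were tested over an 11-point series after 15 min dark preincubation with diaphorase in PBS-Tween.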

[24] = KB-8-5-11 Cancer Cell Toxicity qHTS against the NCATS CANVASS Library (AID 1347364); settings: activity change, negative = toxicity: at 46.1 µM (top of the series); further: nearly all actives have a fitted effect of over 75% in size; further: potency means the concentration at half of the fitted maximal effect
Summary of the method: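 Plate 500 KB-8-5-11 cells per well in DMEM + 10% FBS, add compounds by pin transfer, incubate 72 hr at 37C. Add CellTiter-Glo, wait 10 minutes at room temperature, read luminescence.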

[25] = 10-beta competent E. coli microbial cell viability qHTS against the NCATS CANVASS Library (AID 1347376); further: potency means the concentration at half of the fitted maximal effect
Summary of the method: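 E. coli 10-beta, 0.2 OD; cpds 11-pt; o/n 37C, 5% CO2; BacTiter-Glo 20 min RT; luminescence (ATP) = viable cells. Daunomycin ctrl.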

[26] = qHTS for Inflammasome Signaling Inhibitors: IL-1-beta AlphaLISA screen against the NCATS CANVASS Library (AID 1347379);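 further: human THP-1 cells primed with LPS then triggered with ATP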
Summary of the method: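 THP-1 cells pretreated 1 hr with compound (up to 57.5 uM final), then stimulated with LPS (250 ng/mL final) and ATP (1.25 mM final). Secreted IL-1B measured by AlphaLISA after 16 hr; glyburide as positive control.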

[27] = Redox Reaction Profiling qHTS: Assay Interference Panel against the NCATS CANVASS Library (AID 1347401)
Summary of the method: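 Cell-free redox surrogate: 5 uM resazurin + 200 uM DTT, 50 mM HEPES pH 7.3/50 mM NaCl; cpds pinned, 11-pt qHTS; Ex525/Em598 read t0 and t=15 min, dark.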

[28] = SDT Cancer Cell Toxicity qHTS against the NCATS CANVASS Library (AID 1347365)
Summary of the method: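 qHTS, SDT dog glioma line, 500 cells/well; cpds 11 pts; 72 hr, 37C, 5% CO2; CellTiterGlo ATP luminescence.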

[29] = KB-3-1 Cancer Cell Toxicity qHTS against the NCATS CANVASS Library (AID 1347366); further: potency means the concentration at half of the fitted maximal effect; nearly all actives have a fitted effect of over 75% in size
Summary of the method: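 KB-3-1 cells (500/well) in DMEM with 10% FBS were exposed to compounds for 72 h at 37C. Viability was read by CellTiter-Glo luminescence.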

[30] = MCF7 Cancer Cell Toxicity qHTS against the NCATS CANVASS Library (AID 1347369); settings: activity change, negative = cytotoxicity: at 46 µM (top of the series)
Summary of the method: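 MCF7 cells (500/well) were exposed 72 h at 37 °C to compounds in an 11-point series. Viability was read as ATP content by CellTiterGlo luminescence.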

Measured: Potency
Tags describe the fitted curve by direction and shape.

COc1cc(/C=C/C(=O)O)ccc1O
inconclusive: [7] 0.305 µM [inhibitor, single point]
inactive: [1] | [2] | [3] | [4] | [5] | [6] | [8] | [9]

C[C@H]1C=C[C@H]2CCCC[C@@H]2[C@H]1C(=O)[C@H]1CC2=C(C(=O)O)CCN2C1=O
inactive: [12] | [14] | [15] | [16]
active: [17] 19.3 µM
inconclusive: [1] 14.9 µM [cytotoxic, partial curve, poor fit] | [10] 14.9 µM [cytotoxic, partial curve] | [11] 37.2 µM [cytotoxic, single point] | [13] 7.43 µM [cytotoxic, full curve, poor fit] | [18] 38.1 µM [cytotoxic, partial curve]

CC[C@H](C)[C@H]1NC(=O)[C@@H](NC(=O)C(C)C)[C@@H](C)OC(=O)[C@H](COC(=O)CNC(C)=O)NC(=O)[C@@H]([C@@H](C)O)NC(=O)[C@H](Cc2ccccc2)N(C)C(=O)[C@H](c2ccc(OC)cc2)NC1=O (Isobutyryl-T[d(aIle)][Phg(4-OMe)][NMeF][d(aThr)]S([Gly-Ac]); ester 1-C)
inconclusive: [1] 21.1 µM [cytotoxic, partial curve, poor fit] | [8] 18.6 µM [activator, partial curve] | [17] 34.3 µM [inhibitor, partial curve, poor fit]
inactive: [15] | [19]

Cc1occ2c1C(=O)c1c(cc(O)c(O)c1O)C2=O
active: [21] 5.95 µM | [3] 13.3 µM | [19] 11.7 µM
inconclusive: [1] 14.9 µM [cytotoxic, partial curve] | [2] 29.8 µM [cytotoxic, single point] | [20] 21.1 µM [cytotoxic, partial curve, poor fit] | [4] 29.8 µM [cytotoxic, single point] | [11] 37.2 µM [cytotoxic, single point] | [5] 37.2 µM [cytotoxic, single point] | [23] 24.3 µM [inhibitor, partial curve] | [24] 37.2 µM [cytotoxic, partial curve, poor fit] | [14] 18.8 µM [inhibitor, partial curve] | [25] 14.8 µM [cytotoxic, partial curve] | [16] 0.0012 µM [cytotoxic, full curve] | [8] 8.31 µM [activator, full curve] | [17] 12.2 µM [inhibitor, partial curve, poor fit] | [9] 23.4 µM [cytotoxic, partial curve, poor fit]
inactive: [22]

C=C1C[C@@]23C=CC(=O)[C@@](C)(CCCC(C)C(=O)O)[C@@H]2C[C@@H]1CC3 (stereo not given in full)
inactive: [1] | [2] | [11] | [16]
inconclusive: [21] 8.41 µM [cytotoxic, partial curve, poor fit] | [13] 11.8 µM [cytotoxic, partial curve]

COc1cc2ccc(=O)oc2c(O)c1O[C@@H]1O[C@H](CO)[C@@H](O)[C@H](O)[C@H]1O
inconclusive: [10] 14.6 µM [cytotoxic, partial curve, poor fit] | [20] 14.6 µM [cytotoxic, partial curve, poor fit] | [26] 13.3 µM [inhibitor, partial curve] | [7] 16.8 µM [inhibitor, partial curve] | [17] 30 µM [inhibitor, single point]
inactive: [1] | [2] | [24] | [14] | [8] | [27]

COc1cc2c(cc1OC)[C@@H](c1ccc3c(c1)OCO3)C(C)C(C)C2=O (stereo not given in full)
inactive: [28] | [30] | [26] | [18]
active: [24] 18.7 µM
inconclusive: [1] 29.8 µM [cytotoxic, single point] | [2] 14.9 µM [cytotoxic, partial curve] | [20] 16.8 µM [cytotoxic, single point] | [21] 11.9 µM [cytotoxic, partial curve] | [11] 29.6 µM [cytotoxic, single point] | [5] 23.5 µM [cytotoxic, single point] | [29] 23.5 µM [cytotoxic, single point] | [13] 13.2 µM [cytotoxic, partial curve, poor fit] | [14] 16.7 µM [inhibitor, partial curve, poor fit] | [8] 2.63 µM [activator, partial curve] | [17] 9.65 µM [inhibitor, full curve]
